Out of some 39,000 compounds screened, about 220 (0.56%) showed activity. The list shows a part of the results.
What follows are molecules tested on Escherichia coli K-12 BW25113 (assay: relative growth (OD600 normalised to plate interquartile mean) (fraction); higher = less growth inhibition, active = 0.2 or less). Conditions: 50 µM; LB; incubation time: overnight (16-24 h).
With `C[C@@H]1CN([C@H](C)CO)C(=O)c2cccc(NC(=O)Nc3cccc4ccccc34)c2O[C@@H]1CN(C)Cc1ccc2c(c1)OCO2` the relative growth was inactive: 1. `COc1ccccc1S(=O)(=O)N(C)C[C@H]1Oc2cc(C#CCC(C)C)ccc2S(=O)(=O)N([C@@H](C)CO)C[C@@H]1C` was tested, and the relative growth was inactive: 1.01. With `COc1ccc(S(=O)(=O)N(C)C[C@@H]2Oc3ccc(NS(=O)(=O)c4cn(C)cn4)cc3CC(=O)N([C@H](C)CO)C[C@@H]2C)cc1` the relative growth was inactive: 1.01. With `C[C@@H]1CCCCO[C@H](CN(C)C(=O)c2ccncc2)[C@H](C)CN([C@@H](C)CO)C(=O)c2cc(NC(=O)NC3CCCCC3)ccc2O1` the relative growth was inactive: 0.995. For `C[C@@H]1CN([C@H](C)CO)C(=O)c2cc(NC(=O)Cc3ccccc3)ccc2O[C@@H](C)CCCCO[C@@H]1CN(C)C(=O)Cc1ccccc1`, the relative growth was inactive: 1.01. In the case of `C[C@H](CO)N1C[C@H](C)[C@H](CN(C)CC2CCCCC2)Oc2ccc(NC(=O)Nc3cccc4ccccc34)cc2CC1=O`, the relative growth is reported as inactive: 1.02. In the case of `C[C@H]1CN([C@@H](C)CO)C(=O)c2cccc(NC(=O)c3ccc(-c4nccs4)cc3)c2O[C@H]1CN(C)CC1CCCCC1`, the relative growth is reported as inactive: 0.902. For `C[C@@H]1CN([C@@H](C)CO)C(=O)c2cc(NC(=O)C3CCCCC3)ccc2O[C@@H](C)CCCCO[C@@H]1CN(C)S(=O)(=O)c1cccs1`, the relative growth was inactive: 1.02. With `Cn1nccc1CNC(=O)c1ccnn1C` the relative growth was inactive: 0.995. `C=COCCCCO` was tested, and the relative growth was inactive: 1. For `Cc1n[nH]c(C)c1N`, the relative growth was inactive: 1.03. `C[C@H](CO)N1C[C@H](C)[C@@H](CN(C)C(=O)Nc2cccc3ccccc23)Oc2c(NC(=O)Nc3ccc(F)cc3)cccc2C1=O` was tested, and the relative growth was inactive: 0.986. For `CO[C@@H]1CN(C)C(=O)c2cc(NS(=O)(=O)c3ccccc3C)ccc2OC[C@@H](C)N(S(C)(=O)=O)C[C@@H]1C`, the relative growth was inactive: 1.03. With `Cc1ccc(CN2CCN(CCO)CC2)o1` the relative growth was inactive: 0.905. In the case of `COc1ccc(NC(=O)N(C)C[C@@H]2OCCCC[C@H](C)Oc3ccc(NC(=O)c4ccncc4)cc3C(=O)N([C@@H](C)CO)C[C@@H]2C)cc1`, the relative growth is reported as inactive: 0.991. For `C[C@H](CO)N1C[C@H](C)[C@H](CN(C)S(=O)(=O)c2cn(C)cn2)Oc2ncc(-c3cccc(F)c3)cc2C1=O`, the relative growth was inactive: 0.97. In the case of `CO[C@@H]1CN(C)C(=O)c2cc(NC(=O)c3ccc(F)cc3)ccc2OC[C@H](C)N(C(=O)CN(C)C)C[C@@H]1C`, the relative growth is reported as inactive: 1. `C[C@@H]1CN([C@@H](C)CO)C(=O)CCCn2nncc2CO[C@@H]1CN(C)Cc1cccc2c1OCCCO2` was tested, and the relative growth was inactive: 0.992. `CC(=O)N(C)C[C@@H]1Oc2cc(C#CCN(C)C)ccc2S(=O)(=O)N([C@H](C)CO)C[C@H]1C` was tested, and the relative growth was inactive: 1. In the case of `C[C@H](CO)N1C[C@H](C)[C@H](CN(C)C(=O)Nc2ccc3c(c2)OCO3)Oc2c(NC(=O)c3ccncc3)cccc2C1=O`, the relative growth is reported as inactive: 0.99. `COCC(=O)N1CC(=O)N2[C@@H](CO)[C@H](c3ccc(C#Cc4cccnc4)cc3)[C@@H]2C1` was tested, and the relative growth was inactive: 1. `CNc1ccc(-c2nc(N3CCOCC3)c3sc(CN(C)c4ncc(C(=O)NO)cn4)cc3n2)cn1` was tested, and the relative growth was inactive: 0.802. With `CO[C@H]1CN(C)C(=O)c2ccc(NS(C)(=O)=O)cc2OC[C@@H](C)N(C(=O)C2CCOCC2)C[C@@H]1C` the relative growth was inactive: 1. For `Cc1noc(C)c1S(=O)(=O)N(C)C[C@H]1Oc2ccc(NS(=O)(=O)c3ccc(F)cc3)cc2CC(=O)N([C@@H](C)CO)C[C@@H]1C`, the relative growth was inactive: 1.02. For `COc1ccc(NC(=O)N(C)C[C@@H]2OCCCC[C@@H](C)Oc3ccc(NS(=O)(=O)c4ccc(OC)cc4)cc3C(=O)N([C@@H](C)CO)C[C@H]2C)cc1`, the relative growth was inactive: 1.05. With `CCn1nnc(NC(=O)Cc2ccccc2)n1` the relative growth was inactive: 0.968. `COc1ccc(S(=O)(=O)N(C)C[C@@H]2Oc3c(NC(=O)C4CCOCC4)cccc3C(=O)N([C@@H](C)CO)C[C@H]2C)cc1` was tested, and the relative growth was inactive: 1.01. With `C[C@H]1CN([C@@H](C)CO)C(=O)c2cc(NC(=O)Nc3ccccc3)ccc2O[C@H]1CN(C)S(=O)(=O)c1cn(C)cn1` the relative growth was inactive: 1. For `NNC(=S)Nc1ccccc1`, the relative growth was inactive: 1.01. With `C[C@H]1CN([C@@H](C)CO)S(=O)(=O)c2ccc(C#CC3CCCC3)cc2O[C@@H]1CN(C)C(=O)Cc1ccncc1` the relative growth was inactive: 1.02. For `C=CCON1C(=O)[C@@H]2[C@@H](C1=O)[C@@H]1C=C[C@@H]2O1`, the relative growth was inactive: 1. In the case of `OC[C@H]1O[C@H](n2nnc3ccccc32)[C@@H](O)[C@@H](O)[C@@H]1O`, the relative growth is reported as inactive: 0.989. With `C[C@@H]1CN([C@H](C)CO)C(=O)CCCn2cc(nn2)CO[C@H]1CN(C)S(=O)(=O)c1ccc(C#N)cc1` the relative growth was inactive: 0.984. In the case of `COc1ccc(NC(=O)N(C)C[C@H]2Oc3ccc(NC(=O)C4CC4)cc3C(=O)N([C@@H](C)CO)C[C@H]2C)cc1`, the relative growth is reported as inactive: 0.963. With `C[C@H](CO)N1C[C@H](C)[C@@H](CN(C)Cc2ccc(Cl)c(Cl)c2)Oc2ccc(NC(=O)Nc3ccccc3)cc2CC1=O` the relative growth was inactive: 0.97. With `C[C@@H]1CCCCO[C@H](CN(C)C(=O)Nc2ccc(F)cc2)[C@@H](C)CN([C@H](C)CO)C(=O)c2cc(NC(=O)c3ccncc3)ccc2O1` the relative growth was inactive: 0.996. `Cc1noc(C)c1S(=O)(=O)Nc1ccc2c(c1)CC(=O)N([C@H](C)CO)C[C@H](C)[C@H](CN(C)S(C)(=O)=O)O2` was tested, and the relative growth was inactive: 1.02. For `O=C(O)c1ccc2c(c1)OCO2`, the relative growth was inactive: 0.853. With `O=C(C[C@H]1C[C@H]2c3cc(NC(=O)C4CCOCC4)ccc3O[C@H]2[C@H](CO)O1)NCCN1CCCCC1` the relative growth was inactive: 1.02. In the case of `Clc1cccc(Cc2cn3cc(-c4ccccc4)nc3s2)c1`, the relative growth is reported as inactive: 1.01. In the case of `O=C(N[C@H](NC(=S)Nc1ccc(F)c([N+](=O)[O-])c1)C(Cl)(Cl)Cl)C(c1ccccc1)c1ccccc1`, the relative growth is reported as inactive: 1.13. In the case of `COc1ccc(NC(=O)Nc2ccc3c(c2)C(=O)N([C@H](C)CO)C[C@@H](C)[C@@H](CN(C)Cc2ccc(C(=O)O)cc2)OCCCC[C@H](C)O3)cc1`, the relative growth is reported as inactive: 0.953.
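Also: static incubation at 37 °C against the wild-type strain, values averaged over two biological replicates.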
